# According to the supplement of paper PMC3334620:
# Over roughly 33,000 sequences, “E-score (-0.5 to 0.5)” has its median near -0.021; the highest 2% begin near 0.32. The list shows a part of the results.
# Target: T1, Zap1 (UniProt P47043)
# T1 sequence: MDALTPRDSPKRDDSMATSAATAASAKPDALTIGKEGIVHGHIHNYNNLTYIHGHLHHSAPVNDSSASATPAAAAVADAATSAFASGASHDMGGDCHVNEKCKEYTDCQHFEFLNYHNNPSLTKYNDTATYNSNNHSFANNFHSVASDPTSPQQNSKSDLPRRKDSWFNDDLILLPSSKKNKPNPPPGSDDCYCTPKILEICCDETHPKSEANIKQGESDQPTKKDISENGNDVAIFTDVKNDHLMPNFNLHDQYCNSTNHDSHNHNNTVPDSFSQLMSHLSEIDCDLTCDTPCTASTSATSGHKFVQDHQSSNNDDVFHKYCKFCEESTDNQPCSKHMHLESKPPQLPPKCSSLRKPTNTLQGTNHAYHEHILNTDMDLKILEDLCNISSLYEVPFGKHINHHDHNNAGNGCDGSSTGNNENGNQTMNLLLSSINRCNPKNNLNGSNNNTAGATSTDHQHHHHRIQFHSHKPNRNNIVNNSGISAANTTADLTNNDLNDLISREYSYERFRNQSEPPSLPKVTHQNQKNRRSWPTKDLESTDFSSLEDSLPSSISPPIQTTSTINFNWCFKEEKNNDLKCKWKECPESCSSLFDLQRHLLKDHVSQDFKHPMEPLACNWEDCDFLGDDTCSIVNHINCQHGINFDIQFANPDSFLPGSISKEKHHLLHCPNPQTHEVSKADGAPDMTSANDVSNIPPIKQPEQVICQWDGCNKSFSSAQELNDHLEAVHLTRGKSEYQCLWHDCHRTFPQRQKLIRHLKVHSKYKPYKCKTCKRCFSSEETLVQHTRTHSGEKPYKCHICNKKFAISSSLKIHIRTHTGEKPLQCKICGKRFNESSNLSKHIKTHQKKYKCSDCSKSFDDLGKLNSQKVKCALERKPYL
# Experiment: PBM E-score (8-mer binding enrichment) (E-score (-0.5 to 0.5)); higher = stronger / more preferred TF binding; most listed sequences are background and not binding sites
# Settings: protein concentration: 200 nM; construct: GST-full length
# Procedure: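 Universal 'all 10-mer' protein binding microarrays (Agilent AMADID 015681) probed with GST-tagged S. cerevisiae TFs (full-length or DBD) made by in vitro transcription/translation (PURExpress), about 100-200 nM. Bound TF was detected with fluorescent anti-GST. Each ungapped 8-mer (which stands for itself and its reverse complement) is scored by the PBM enrichment score (E-score), a modified Wilcoxon-Mann-Whitney statistic from -0.5 to +0.5, computed with the Universal PBM Analysis Suite. Scale: above 0.35 generally sequence-specific binding.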
row,Sequence,PBM E-score
1,CTCAAGGA,-0.00489
2,AAGCGCTG,-0.143
3,ACCCATAG,0.196
4,TCAGCCGA,-0.172
5,AAGACCTC,0.00604
6,GCAGGACA,0.0628
7,CCTCGCTA,-0.162
8,CTGTTACA,0.0543
9,ATATAAGA,0.21
10,AAATAAGA,0.0511
11,ACCCGTTA,0.287
12,CGTTTGCA,-0.0346
13,CAATGCTA,-0.0663
14,CCGCTCGC,-0.129
15,AGGCCAAA,0.0849
16,CAAGGAAC,0.141
17,CTGTCGAA,-0.107
18,AGTGATAA,0.0174
19,AAAGCAAG,-0.0115
20,AAGATTCG,0.0593
21,GCTTAAGA,-0.157
22,AGCTAACG,-0.102
23,ATGCAGAC,0.0215
24,TCAGGCAA,-0.154
25,CCCATGAA,0.155

row,Sequence,PBM E-score
1,CTTCCAAA,0.0642
2,CGGAGCTC,-0.223
3,AACAAATG,0.154
4,CCTTTTAC,0.2
5,GGACATAC,0.0076
6,ACTTAGAT,0.0667
7,CCCGCGAA,0.127
8,ATCGTAAG,-0.0162
9,CGTGCATC,-0.0375
10,AGTAAAAC,-0.0747
11,ACTGCCGC,0.0637
12,GAAGATCC,-0.36
13,CAGCTAGA,-0.0537
14,AACGTTTG,-0.0264
15,CATAGAAC,-0.0409
16,GTGCTCTA,-0.0713
17,AGATAACA,0.107
18,CCTGAGCG,-0.0277
19,TACGTCAA,-0.00419
20,AACCCAGA,0.236
21,ATTCCTTA,0.227
22,ACCATTAA,0.348
23,AACTAATG,0.218
24,AACGGTGT,-0.107
25,GCAGTGAA,-0.014

row,Sequence,PBM E-score
1,CAGTACTC,-0.164
2,CACACATA,-0.0854
3,CCGTGACC,0.376
4,CTGTGCAA,-0.0488
5,CCCTAGTC,-0.194
6,AGGCTCTC,-0.349
7,CCACCGTA,0.0878
8,CTGACGCA,-0.276
9,GAAGGCTC,-0.376
10,ATAAGAAC,0.264
11,CACATGAA,0.0532
12,CTAAGAAC,0.118
13,TCTTCGAA,0.00843
14,ATCAGCGG,-0.0232
15,AACTTATA,0.134
16,ACGAGTAG,-0.0373
17,CAGCACGG,-0.0301
18,CTTCGACC,-0.00146
19,AATTTGCC,-0.0429
20,ATACCAAT,-0.0063
21,CAATGCCG,-0.261
22,GATTAGCC,-0.209
23,TATTCTCA,-0.0303
24,AAATACGG,0.124
25,AACTTCGA,0.0778

row,Sequence,PBM E-score
1,CTCAGATA,-0.0243
2,AGAACGTG,-0.00445
3,AATAACAT,0.0801
4,CAGGCGCA,-0.226
5,CTTATTGC,0.0266
6,AAGTATGT,-0.00136
7,TAGGCGGA,-0.137
8,TTGCGCAA,0.0715
9,AGCAGTGC,-0.26
10,CAACCTTG,0.332
11,CGGTGGGC,-0.00164
12,AATTTACT,0.14
13,ACATCGAC,-0.182
14,TAGGGTCA,0.408
15,CCCGGACG,-0.26
16,ATCACCAA,0.0362
17,AGACCGCC,0.0208
18,CCCAGAGG,0.202
19,CGCATTTA,0.0487
20,ATCCCACC,0.156
21,TTCCGCAA,0.192
22,AGGCGCAA,-0.124
23,ATCCGAAG,-0.0607
24,ATATCCCG,0.132
25,CATAGTAC,-0.0152

row,Sequence,PBM E-score
1,GAACCCTC,0.18
2,GGTTCCGA,0.265
3,CTTGTAGA,-0.118
4,CGTCTATC,-0.231
5,CAGTTTCA,-0.12
6,CGAACTAG,0.0259
7,GTACCCAC,0.212
8,GTTTGCTA,0.0208
9,CCACTATC,-0.0566
10,GTAACATA,0.209
11,GTATGACA,-0.0285
12,ATGAGAGC,-0.104
13,CTTCCGCC,-0.108
14,ATCATTGA,0.0965
15,TTAACGAA,0.22
16,AGGCACGC,-0.236
17,GAACTTAA,0.0397
18,AGCCTGTA,-0.0884
19,GCGTAAGA,-0.0758
20,AGACGTGC,-0.204
21,AACGGAGG,-0.279
22,AAAATCCA,0.0613
23,AATAGGCG,-0.0939
24,GACTACCC,0.301
25,CGCCTACC,-0.151

row,Sequence,PBM E-score
1,AACTCTGT,-0.0857
2,ACCATCAC,0.153
3,GCGAACTA,-0.057
4,AGCATTGC,-0.145
5,ACGTTTCA,-0.0937
6,GGGTACAA,0.345
7,CGGCAAAG,-0.158
8,CGACCGGC,0.00958
9,GGTATCCA,0.253
10,AAACATCT,-0.0428
11,ACATCCTG,0.00886
12,AACTAGCA,-0.00179
13,GTTGGTCA,0.24
14,AGTAATCG,-0.0726
15,AGACTGCT,-0.0613
16,AGATCTGC,-0.105
17,GCGTTCCC,-0.0434
18,GTCCTACA,0.104
19,GGACGTTA,-0.0322
20,ACTTGATC,0.0451
21,AGCATAAG,-0.0471
22,ATCACATC,-0.0715
23,AATCTGTA,-0.0544
24,CAACGGGG,0.105
25,CCGTCAAG,0.159

row,Sequence,PBM E-score
1,AACAATAA,0.258
2,ATCACCAT,0.196
3,CCCAAGGA,0.00233
4,CTCGCCAC,-0.227
5,CATTTAAC,0.248
6,GTATCGAC,0.115
7,ATTCACCG,0.00237
8,ACCGAATG,-0.0436
9,AACCATGT,0.239
10,GCAACACA,-0.154
11,AAACGCCG,-0.159
12,AGTCTAAC,-0.0889
13,ACCTCTGA,0.241
14,GAGAGGGC,-0.355
15,AACCTGGC,0.0636
16,CAGTGAAG,-0.277
17,CGAGATGA,-0.0111
18,CCCCTGGC,-0.0954
19,ATCTTGGG,-0.107
20,GGTCACAA,0.393
21,GTAGAGTA,0.0367
22,GTCCCAAC,-0.0842
23,GACTAATC,-0.144
24,CAAGGTGC,-0.111
25,ACTAATTC,0.122

row,Sequence,PBM E-score
1,AGCATTCA,-0.146
2,AAAGGCCC,0.0508
3,GATGCATC,0.0481
4,ATCCATAA,0.25
5,ACGGTAAT,0.139
6,AGTGATTC,-0.107
7,ACATCAGA,0.0095
8,AACTCGGG,0.0219
9,ACCCGCGA,0.207
10,AGATGTCG,-0.028
11,CATGGTCG,-0.0819
12,GGCAACCC,0.358
13,CCTAAGAC,-0.0667
14,AGGCGGCA,-0.241
15,CAACACTA,0.115
16,AACACATT,0.012
17,AGTTGTCG,-0.00588
18,ACTATGCT,0.0185
19,GAAATGGA,-0.196
20,TCGCGCAA,0.0975
21,ACAAGGCG,-0.128
22,TTAAATAA,0.177
23,CAGGAATG,-0.148
24,CGTGGAGC,-0.138
25,ATCCGTAA,0.0475

row,Sequence,PBM E-score
1,GAGCAGAA,-0.116
2,CGCGCCTA,0.0177
3,GGATAGGA,-0.141
4,ACTTGGAT,0.156
5,TGAGTAAA,0.0227
6,AAAAAAAT,0.176
7,TGGTAACA,0.0812
8,CTCAGAGC,-0.198
9,GAAAACGA,0.0161
10,AGAGTAGC,-0.202
11,AAATTACC,0.307
12,GAGAAAAC,0.0811
13,AATATAGT,0.0896
14,ATATGAAA,0.264
15,ATAATTGG,0.0347
16,TATCAGAA,0.0282
17,CTGCAGTC,-0.13
18,TCCGACCA,-0.116
19,AGACTATG,-0.11
